Paper PMC8956578, “The inner side of yeast PCNA contributes to genome stability by mediating interactions with Rad18 and the replicative DNA polymerase δ” (Scientific Reports, 2022)
These are yes or no findings as the source states them, for the method shown. Some entries that bind do so weakly or less than the wild type. For some assays here: Where a sequence is shown, tags or fusion partners need not be part of it.

T1: Apn2, Gal4 DNA-binding domain fusion (pGBT9, pID1159) (yeast) (UniProt P38207)
T1 sequence: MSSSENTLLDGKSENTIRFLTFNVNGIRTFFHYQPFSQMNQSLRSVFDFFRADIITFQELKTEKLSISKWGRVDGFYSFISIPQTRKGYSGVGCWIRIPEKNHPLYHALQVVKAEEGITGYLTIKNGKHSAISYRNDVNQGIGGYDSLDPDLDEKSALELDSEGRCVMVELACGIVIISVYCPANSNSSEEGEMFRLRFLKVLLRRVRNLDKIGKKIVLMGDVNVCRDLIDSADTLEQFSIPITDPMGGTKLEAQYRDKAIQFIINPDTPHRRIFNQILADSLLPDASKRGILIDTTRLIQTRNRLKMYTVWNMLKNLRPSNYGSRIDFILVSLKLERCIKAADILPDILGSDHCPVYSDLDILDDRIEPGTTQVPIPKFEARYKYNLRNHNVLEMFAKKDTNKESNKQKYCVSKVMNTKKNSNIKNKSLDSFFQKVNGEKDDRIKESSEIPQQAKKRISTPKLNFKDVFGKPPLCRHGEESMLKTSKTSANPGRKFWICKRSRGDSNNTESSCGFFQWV

T2: Rad5, Gal4 DNA-binding domain fusion (pGBT9, pID623) (yeast) (UniProt P32849)
T2 sequence: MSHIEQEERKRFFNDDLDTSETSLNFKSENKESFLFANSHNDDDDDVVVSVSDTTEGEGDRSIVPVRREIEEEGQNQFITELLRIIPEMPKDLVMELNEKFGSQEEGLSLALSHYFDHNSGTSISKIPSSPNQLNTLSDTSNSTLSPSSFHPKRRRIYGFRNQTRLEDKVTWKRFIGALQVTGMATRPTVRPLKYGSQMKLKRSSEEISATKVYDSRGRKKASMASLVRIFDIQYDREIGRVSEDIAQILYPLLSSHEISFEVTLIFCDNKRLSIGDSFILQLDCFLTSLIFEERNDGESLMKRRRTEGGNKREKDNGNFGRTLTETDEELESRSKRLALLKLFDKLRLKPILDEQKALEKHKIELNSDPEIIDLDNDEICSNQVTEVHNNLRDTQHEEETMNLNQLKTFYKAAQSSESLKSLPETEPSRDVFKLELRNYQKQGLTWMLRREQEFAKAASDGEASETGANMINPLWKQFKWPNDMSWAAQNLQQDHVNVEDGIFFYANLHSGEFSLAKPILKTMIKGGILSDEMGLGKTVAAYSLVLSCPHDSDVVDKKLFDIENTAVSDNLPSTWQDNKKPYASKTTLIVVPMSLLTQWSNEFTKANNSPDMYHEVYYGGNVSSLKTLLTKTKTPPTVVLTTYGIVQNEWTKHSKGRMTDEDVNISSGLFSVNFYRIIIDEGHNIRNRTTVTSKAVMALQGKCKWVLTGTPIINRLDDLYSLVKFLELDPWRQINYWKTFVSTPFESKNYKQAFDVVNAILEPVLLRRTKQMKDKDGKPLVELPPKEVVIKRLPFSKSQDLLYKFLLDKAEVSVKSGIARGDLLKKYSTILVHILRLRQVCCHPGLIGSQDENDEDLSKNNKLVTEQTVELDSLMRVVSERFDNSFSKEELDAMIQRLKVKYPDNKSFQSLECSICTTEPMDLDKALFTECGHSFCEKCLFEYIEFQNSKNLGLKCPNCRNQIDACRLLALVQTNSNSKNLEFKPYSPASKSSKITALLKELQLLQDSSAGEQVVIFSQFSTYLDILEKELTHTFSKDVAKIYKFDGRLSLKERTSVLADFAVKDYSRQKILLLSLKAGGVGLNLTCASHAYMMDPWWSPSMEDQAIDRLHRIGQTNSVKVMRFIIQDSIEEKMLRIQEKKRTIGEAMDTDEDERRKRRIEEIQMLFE

T3: Pol31, Gal4 DNA-binding domain fusion (pGBT9, pID1023) (yeast), P46957
T3 chain: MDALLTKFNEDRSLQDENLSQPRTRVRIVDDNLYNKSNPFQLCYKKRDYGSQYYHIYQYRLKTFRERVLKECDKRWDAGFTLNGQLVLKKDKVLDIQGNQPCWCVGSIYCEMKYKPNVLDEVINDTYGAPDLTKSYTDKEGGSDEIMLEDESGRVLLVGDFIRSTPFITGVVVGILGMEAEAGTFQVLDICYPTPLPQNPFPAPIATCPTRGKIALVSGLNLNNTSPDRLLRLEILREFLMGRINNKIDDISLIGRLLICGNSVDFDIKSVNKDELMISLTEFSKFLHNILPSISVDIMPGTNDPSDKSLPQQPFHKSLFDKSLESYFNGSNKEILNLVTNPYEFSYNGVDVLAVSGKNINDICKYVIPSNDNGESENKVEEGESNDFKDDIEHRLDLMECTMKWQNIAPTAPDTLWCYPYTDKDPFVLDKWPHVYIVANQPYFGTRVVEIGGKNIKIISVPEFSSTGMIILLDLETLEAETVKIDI

T4: Pol3, catalytic subunit of Polδ, two-hybrid fusion (yeast), P15436
T4 chain: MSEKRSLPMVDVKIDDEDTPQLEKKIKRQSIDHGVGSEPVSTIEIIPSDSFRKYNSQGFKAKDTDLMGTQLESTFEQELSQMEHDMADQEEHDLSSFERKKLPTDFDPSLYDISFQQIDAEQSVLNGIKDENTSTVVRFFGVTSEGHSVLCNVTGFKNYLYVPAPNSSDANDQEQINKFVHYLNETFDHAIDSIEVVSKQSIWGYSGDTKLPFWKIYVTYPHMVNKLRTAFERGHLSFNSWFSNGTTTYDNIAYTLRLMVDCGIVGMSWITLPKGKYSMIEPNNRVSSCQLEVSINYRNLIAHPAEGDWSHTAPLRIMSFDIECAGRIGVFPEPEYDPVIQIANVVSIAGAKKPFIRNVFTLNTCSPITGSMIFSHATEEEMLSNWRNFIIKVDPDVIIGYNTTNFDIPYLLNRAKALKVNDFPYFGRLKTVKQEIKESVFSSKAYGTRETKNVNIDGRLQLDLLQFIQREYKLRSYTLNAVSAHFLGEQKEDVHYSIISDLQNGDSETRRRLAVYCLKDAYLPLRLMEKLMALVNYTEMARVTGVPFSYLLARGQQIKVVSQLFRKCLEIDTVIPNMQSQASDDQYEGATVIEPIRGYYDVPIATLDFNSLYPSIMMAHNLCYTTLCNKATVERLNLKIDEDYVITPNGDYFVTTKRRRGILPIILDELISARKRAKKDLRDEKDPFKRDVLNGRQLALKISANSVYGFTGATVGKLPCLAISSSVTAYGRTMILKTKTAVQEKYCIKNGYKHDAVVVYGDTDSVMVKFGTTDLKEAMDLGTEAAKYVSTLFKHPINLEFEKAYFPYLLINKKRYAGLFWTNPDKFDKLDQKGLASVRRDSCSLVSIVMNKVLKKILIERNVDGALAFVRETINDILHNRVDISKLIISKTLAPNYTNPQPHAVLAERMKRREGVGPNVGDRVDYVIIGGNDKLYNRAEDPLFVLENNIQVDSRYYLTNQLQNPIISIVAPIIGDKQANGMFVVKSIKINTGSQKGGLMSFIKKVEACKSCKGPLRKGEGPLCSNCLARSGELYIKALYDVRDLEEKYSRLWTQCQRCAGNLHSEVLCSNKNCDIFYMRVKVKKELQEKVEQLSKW

B1: Rad18, Gal4 activation domain fusion (pGAD424 + 1, pID684) (protein, UniProt P10862 1-487)
chain: MDHQITTASDFTTTSIPSLYQLDTLLRCHICKDFLKVPVLTPCGHTFCSLCIRTHLNNQPNCPLCLFEFRESLLRSEFLVSEIIQSYTSLRSSLLDALRIPKPTPVPENEEVPGPENSSWIELISESESDSVNAADDDLQIVATSERKLAKRSMTDILPLSSKPSKRNFAMFRSERIKKKSKPNEQMAQCPICQQFYPLKALEKTHLDECLTLQSLGKKPKISTTFPTESNPHNKSSSRFKVRTPEVDKSSCGETSHVDKYLNSMMSAEHQRLPKINFTSMTQSQIKQKLSSLGLSTNGTRQNMIKRYNHYEMLWNSNFCDSLEPVDEAELKRQLLSWDVSHNKTPQNSSNKGGISKLMIMKSNGKSSSYRKLLENFKNDKFNRKGWMVMFRKDFARLIREAKMKIKTGSSDSSGSVGHSNDGDGVEKVQSDQGTEDQQMEKDQDTVINEDRVAGERNLPNEDSTDADLSRELMDLNEYSKDPPGNN
B2: Rad5, Gal4 activation domain fusion (pGAD424 + 1, pID145) (protein, UniProt P32849 1-1169)
chain: T2 sequence
B3: wild-type PCNA, Gal4 activation domain fusion (pGAD424 + 1, pID999), P15873 1-258 (protein)
chain: MLEAKFEEASLFKRIIDGFKDCVQLVNFQCKEDGIIAQAVDDSRVLLVSLEIGVEAFQEYRCDHPVTLGMDLTSLSKILRCGNNTDTLTLIADNTPDSIILLFEDTKKDRIAEYSLKLMDIDADFLKIEELQYDSTLSLPSSEFSKIVRDLSQLSDSINIMITKETIKFVADGDIGSGSVIIKPFVDMEHPETSIKLEMDQPVDLTFGAKYLLDIIKGSSLSDRVGIRLSSEAPALFQFDLKSGFLQFFLAPKFNDEE

How the values were obtained:
[1] = biological target: T1, Apn2, Gal4 DNA-binding domain fusion (pGBT9, pID1159) (yeast); test: two-hybrid; Gal4 binding and activation domain fusions co-transformed into PJ69-4A; growth on SC-leu/trp/his (HIS3 reporter); 3-AT added to test the strength of the interactions; 30 °C, 3-5 days
[2] = biological target: T2, Rad5, Gal4 DNA-binding domain fusion (pGBT9, pID623) (yeast); test: as above
[3] = biological target: L154A PCNA, purified (yeast) (UniProt P15873); test: native gel or EMSA; increasing concentrations of purified wild-type and mutant PCNA on a 12% non-denaturing polyacrylamide gel; both purified
[4] = biological target: L154A PCNA, Gal4 DNA-binding domain fusion (pGBT9, pID1005) (yeast) (UniProt P15873); test: two-hybrid; Gal4 binding and activation domain fusions co-transformed into PJ69-4A; growth on SC-leu/trp/his (HIS3 reporter); 3-AT added to test the strength of the interactions; 30 °C, 3-5 days
[5] = biological target: wild-type PCNA, Gal4 DNA-binding domain fusion (pGBT9, pID998) (yeast) (UniProt P15873); test: as above
[6] = biological target: T3, Pol31, Gal4 DNA-binding domain fusion …; test: as above; details: remark: other sources report otherwise
[7] = biological target: T4, Pol3, catalytic subunit of Polδ, …; test: as above; details: remark: other sources report otherwise

Row | Molecule | binding [1] | binding [2] | binding [4] | binding [5] | other results
1 | L154A PCNA, Gal4 activation domain fusion (pGAD424 + 1, pID1004) (from UniProt P15873 1-258) | binds | binds |  |  | 
2 | wild-type PCNA, Gal4 activation domain fusion (pGAD424 + 1, pID999) (from UniProt P15873 1-258) | binds | binds |  |  | 
3 | L154A PCNA, purified (from UniProt P15873 1-258) |  |  |  |  | binding [3]: no binding
4 | B1 |  |  | no binding | binds | 
5 | B2 |  |  | binds | binds | 
6 | B3 |  |  |  |  | binding [6]: binds; binding [7]: no binding
